# Test results taken from publication PMC11790949, “A multiplex method for rapidly identifying viral protease inhibitors” (Molecular Systems Biology, 2025).
# Target: HCoV-NL63-PLP2 (Human coronavirus NL63, UniProt P0C6X5)
# Test: Multiplex pooled yeast screen (DNA-barcoded models, magratio)
# Format: cell-based
# Conditions: HCoV-NL63-PLP2 model; library screen at 25 μM; 1 = inhibition comparable to positive control
row,Compound,magratio
1,NC(N)=NC(=S)Nc1ccc(Cl)cc1 [NSC403374],0.3387
2,CNC(=O)Oc1c(C)[nH]ccc1=O [NSC287495],0.3129
3,Cc1cc(N(C)C)ccc1N=Nc1ccc2ncccc2c1 [NSC680516],0.2006

# Target: HCoV-OC43-3CL (Human coronavirus OC43, UniProt P0C6X6)
# Test: as above
# Format: cell-based
# Conditions: HCoV-OC43-3CL model; library screen at 25 μM; 1 = inhibition comparable to positive control
row,Compound,magratio
1,c1ccc2c(c1)-c1cccc3cncc-2c13 [NSC60419],0.4426
2,CCOC(=O)Nc1ccc2nc(-c3cscn3)[nH]c2c1 [NSC299514],0.3203
3,N#Cc1ccc(NC2c3ccccc3CC2O)cc1 (stereo not drawn) [NSC69421],0.4051
